Reference: the RNAGym collection of RNA variant scans (doi:10.7554/elife.90254)
The source gives no read counts; variants with many changes may rest on few reads.

B1: LINE1-mini (parent)
chain: GGCAGAGCUCAACACAGCGUGGCAAAGUGGCUGUGGCUAGACUGCC

Variants of: B1
Assay: self-cleavage, relative activity (ratio to wild type); higher = more cleavage; in vitro, sequencing; the parent is a self-cleaving ribozyme

Row | Variant | self-cleavage
1 | GGCAGAGCUCAACUCAGGGUGGCAAUGUGGCUGUGGCUAGACUGCC [A14U C18G A26U] | 0.04
2 | GGCAGAGCUCAACUCACCGUGACAAAGUGGCUGUGGCUAGAGUGCC [A14U G17C G22A C42G] | 0.01
3 | GGCAGAGCUCAACUCAGCGUGGCAAAGUGGCUGUGGUAAGACUGCC [A14U C37U U38A] | 0.06
4 | GGCAGAGCUCAACUCAGCGUGGCAAAGUGGUUGUGGCGAGAUUGCC [A14U C31U U38G C42U] | 0.01
5 | GGCAGAGCUCAACUCAGAGUGGCAAAGUGGCUGUGGAUAGACUGCC [A14U C18A C37A] | 0.07
6 | GGCAGAGCUCAACUCAGAGUGGCAAAGUGGCUGUGGCUAGACUCCC [A14U C18A G44C] | 0.04
7 | GGCAGAGCUCAACGCAGCGUAGCAAAGUGGCUGUGGCUAGACCGCC [A14G G21A U43C] | 0.21
8 | GGCAGAGCUCAACGCAGCCUGGCAGAGUUGAUGGGGCUAUACUGCC [A14G G19C A25G G29U C31A U34G G40U] | 0.01
9 | GGCAGAGCUCAACGCAGCGUGGCAAAGUGGCCGUGACUAGCCUGCC [A14G U32C G36A A41C] | 0.05
10 | GGCAGAGCUCAACGCAGCGUGGCAAAGUCGUUGUGGCUAGGCUGCC [A14G G29C C31U A41G] | 0
11 | GGCAGAGCUCAACGCAGCGUGGCAAAGUGACUGUGGUUAGACUGCC [A14G G30A C37U] | 0.05
12 | GGCAGAGCUCAACUCGGCGUGGCAAAGUGGCUGUGGGUAGGCUGCC [A14U A16G C37G A41G] | 0.02
13 | GGCAGAGCUCAACCCAGCGAGGCAAAGUGGUUGUGGCUAGACUGCC [A14C U20A C31U] | 0
14 | GGCAGAGCUCAACCCAGCGUGGCAAAGUGGCUGUGUCUAGGCUGCC [A14C G36U A41G] | 0.07
15 | GGCAGAGCUCAACCCAGCGUGGCAAAGUGUCUGUGGCUAGACUUCC [A14C G30U G44U] | 0.02
16 | GGCAGAGCUCAACGCAGCGUGGCGAAGUGGCGGUGGCAAGGCUGCC [A14G A24G U32G U38A A41G] | 0.11
17 | GGCAGAGCUCAACGCAGCGUGGCAAAGGGGCUGUGGCUAGACUACC [A14G U28G G44A] | 0.12
18 | GGCAGAGCUCAACCCAGCGUGGCAAAGUGGCUGUGACUAGACUCCC [A14C G36A G44C] | 0.09
19 | GGCAGAGCUCAACUCAGCGUGGCAUAGUGGCUGUGGCUACACAGCC [A14U A25U G40C U43A] | 0.05

Row | Variant | self-cleavage
20 | GGCAGAGCUCAACUCAUCGUGGCUAAGUGGCUGUGGCUAGACUGCC [A14U G17U A24U] | 0.05
21 | GGCAGAGCUCAACGCAGCGUGGCAAAGUCGGUGUGGCUAUACUGCC [A14G G29C C31G G40U] | 0.03
22 | GGCAGAGCUCAACUCAGCGUGGUAAAGUGGCUGUGGCUAGCCUGCC [A14U C23U A41C] | 0.04
23 | GGCAGAGCUCAACGCAGCGUGGCAAAGUUGCUGUGGCUAGACUGCA [A14G G29U C46A] | 0.18
24 | GGCAGAGCUCAACGCAGCGUGGCAAACUGUGAGUGGCUAAACUGCC [A14G G27C G30U C31G U32A G40A] | 0.03
25 | GGCAGAGCUCAACGCAGCGUGGCAAAGUGGCUGUGUCUAGAAAGCC [A14G G36U C42A U43A] | 0.01
26 | GGCAGAGCUCAACUUCGCGUGGCAAGGUGGCUGUGGCUAAACUGCC [A14U C15U A16C A26G G40A] | 0.24
27 | GGCAGAGCUCAACGCAUCGUGGCAAAGUAGCUGUGGCUAGACUGCC [A14G G17U G29A] | 0.12
28 | GGCAGAGCUCAACUCAGCGUGGCAAAGUGGUUGUGGCUUCACUGCC [A14U C31U A39U G40C] | 0.02
29 | GGCAGAGCUCAACUCAGAGUUGCAAAGUAGCUGUGGCUAUACUGCC [A14U C18A G21U G29A G40U] | 0.03
30 | GGCAGAGCUCAACGCAGAGUGGCAAAGUGGCUGUGGCUAGAAUGCC [A14G C18A C42A] | 0.02
31 | GGCAGAGCUCAACGCUGCGUGCCAAUGUGGCUGUGGUUAGACUGCC [A14G A16U G22C A26U C37U] | 0.13
32 | GGCAGAGCUCAACUCAACGUGGCAAAGAGGCUGUGGCUAGACUGCC [A14U G17A U28A] | 0.03
33 | GGCAGAGCUCAACUCGGCGGGACAAAGUGGCUGUGGCUGGACUGCC [A14U A16G U20G G22A A39G] | 0
34 | GGCAGAGCUCAACGCAGGGUGGCAAAGUGGCUGUGUCUAGACUGCC [A14G C18G G36U] | 0.05
35 | GGCAGAGCUCAACUCAGCGUGGCUAAAUGGCUGUGGCUAGACUGCC [A14U A24U G27A] | 0.46
36 | GGCAGAGCUCAACGCAGCGUGGCAAAGUGGAUGUGCCCAGACUGCA [A14G C31A G36C U38C C46A] | 0.12
37 | GGCAGAGCUCAACCCAGCGUGGCAAAGUGCCUGUGACUAGACUGCC [A14C G30C G36A] | 0.26
38 | GGCAGAGCUCAACGCAGCGUGGCAAAAUGGCUGUGCCUAGACUGCC [A14G G27A G36C] | 0.06

Row | Variant | self-cleavage
39 | GGCAGAGCUCAACGCAGCGUGGCUAUGUGGCUAUGGCUAGACUGCC [A14G A24U A26U G33A] | 0.01
40 | GGCAGAGCUCAACGCCGGGUGGGAAAGUGGCUUUGGCUAGCCCGCC [A14G A16C C18G C23G G33U A41C U43C] | 0.01
41 | GGCAGAGCUCAACGCAGCGUGGCACAGCGGCUGUGGCUAGACUGCC [A14G A25C U28C] | 0.13
42 | GGCAGAGCUCAACGAAGCGUGGUAAAGUGGCUGUGGUUGGACUGCC [A14G C15A C23U C37U A39G] | 0.11
43 | GGCAGAGCUCAACGCACCAUGGCAAAGUGGCUGUGGCUAGACUGCU [A14G G17C G19A C46U] | 0.24
44 | GGCAGAGCUCAACUCCGCGUGCCAAAGUGGCUGUGGCUAGACUGCC [A14U A16C G22C] | 0.05
45 | GGCAGAGCUCAACUCAACGUGGCAAAGUCGCUGUGGCUAGACUGCC [A14U G17A G29C] | 0.05
46 | GGCAGAGCUCAACCCAGCGUGGCAAAGUGUCGGUGGGUCGACUGCC [A14C G30U U32G C37G A39C] | 0.01
47 | GGCAGAGCUCAACCCAGCGUGGCAAAGUGGCGGUGGCUAGGCUGCC [A14C U32G A41G] | 0.04
48 | GGCAGAGCUCAACGCAGCUUGGCGAAGUGGCUGUGGCUUCACUGCC [A14G G19U A24G A39U G40C] | 0.02
49 | GGCAGAGCUCAACGCAGCGUGGCAAAGUUACUGUGCCUAGACUGCC [A14G G29U G30A G36C] | 0.12
50 | GGCAGAGCUCAACGCAUCGUGGCAAACUGGCUGUGGCUAGACUGCC [A14G G17U G27C] | 0
51 | GGCAGAGCUCAACGCAGCGUGGCAAAGUGGCCGUGGCUAGACUGCG [A14G U32C C46G] | 0.03
52 | GGCAGAGCUCAACGCAAUGUGGCAAUGUGGCUGUGGCUAGACUGCC [A14G G17A C18U A26U] | 0.09
53 | GGCAGAGCUCAACGCAGCGUGGCAAAGUGGCUGUGACUAGAUUGCC [A14G G36A C42U] | 0.08
54 | GGCAGAGCUCAACUCCGCGUUGCAAAGUGGCUGUGGCUAGACUGCC [A14U A16C G21U] | 0.05
55 | GGCAGAGCUCAACGCAGCGUGGCAAAGUGGCUGAGGCUUGACUACC [A14G U34A A39U G44A] | 0.06
56 | GGCAGAGCUCAACUGAGCGUGGAAAAGUGGCUGUGGCUAGACUGGC [A14U C15G C23A C45G] | 0.06
